# The list shows a part of the results.
# Test system: PfAP2-HC AP2 domain (GST-tagged)
# Experiment: gcPBM binding intensity (ln(normalized median fluorescence intensity)); higher = stronger DNA binding
# Method in brief: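 Binding intensity is defined as the maximum Masliner-normalised natural-log median intensity across replicate spots for either probe orientation. It was measured on an Agilent 4 × 180k array of primer-extended double-stranded 36-bp intergenic genomic probes and negative controls, to which GST-tagged P. falciparum DNA-binding domains made in E. coli were applied for 1 h in 1× PBS with 1% milk, 0.2 mg/ml BSA, 0.5% salmon testes DNA and 0.03% Triton X-100. Detection was by Alexa488 anti-GST antibody and scanning at 488 nm.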
row,Sequence,gcPBM binding intensity (ln)
1,TTTTCATTCTTTTCCTTTGATTTACAATAGTATATT [GTGCAC_negctrl_site687],9.81
2,CAAAATATTATCATGATGCACTTTACACTCTAAGGT,9.78
3,AAAAAATAAAAGTGGGGTACATGTCATTATGTGCAT [XGTACX_site3753],9.83
4,TCATTATATTATTCTTGTACTTATATCCTTTTTTGA [XGTACX_site5320],9.76
5,TAAAAGTTCACCTGTACACACATATATATCTGTACA [CACACA_site5019],9.87
6,GTTTATTAGGAATTATGTACACAGTTTTATAAAGAA [XGTACX_site2994],9.53
7,AATATAATATATTGCACACAAAAAGTGAATTATTCT [CACACA_site1684],9.89
8,AATATATACATACATACATGCACATATATATATATA [TGCATGCA_site393],9.76
9,AAATAGTTGTTATGGGTGCAAACCACATATATATAA [GTGCAC_site9428],9.63
10,AGGCCTTTTAGTATTTCACACACGTAAATGTGTATA [CACACA_site8284],10.1
11,ATTTGTTTAAGTCACGAACACACATATATCATCAAT [CACACA_site985],9.77
12,ATTATTTACCACAACACACAAATATTTACCAATCAT [CACACA_site5472],10.5
13,AAATATTATTCATTTTGTACGTATAATTTTTAATGA [XGTACX_site3509],9.57
14,AGTAGTCTGGAGAAAAGTACACAGTATCTGGTAGCT [XGTACX_site2544],9.6
15,TATAATAATCCACAAGCACACACACCCACATATATA [CACACA_site8343],11.3
16,GATCTTTCACATATATATATAAAGGATATTATGGTA [CACACA_negctrl_site522],9.5
17,ATTATATTATATTATACATGCATAATATTATATAAA [TGCATGCA_site647],9.54
18,TTATTACACAAATGGTGTACTTTTGAGGAACCAAAA [XGTACX_site4279],9.44
19,AAATTAAATGTAAGCACACATAAATTATACGCATAT [CACACA_site3335],9.79

row,Sequence,gcPBM binding intensity (ln)
1,ACATTGAATAAATAATGTACATATATAATATATATT [XGTACX_site95],9.73
2,TTGCAGTATTTCGGAACACACAAACATAAATATGTA [CACACA_site5307],9.67
3,AACATCTTATCATCATGTACGAAGCAGTTTTATAAG [XGTACX_site2490],9.54
4,TATAATAAATATACTGGTACACAAATATATATATTT [XGTACX_site7741],9.77
5,TGTAATTTTTTACGTTGTACATATATTAACAATATA [XGTACX_site3991],9.54
6,ATATTATATTTACATAGTACACTATATGTATATATA [XGTACX_site2101],9.79
7,TATGCATATACACAAGCACACATATATATATATATA [CACACA_site8266],9.97
8,AAAAAAATAATATAATATTAAATCTTAGTTAATAAA [GTGCAC_negctrl_site658],9.49
9,AAAAAAAAAAAAAAAAAAACTAATATAATAAAAATA [TGCATGCA_negctrl_site150],9.31
10,TTTTTTTTTTTTTACACACCCAAATCACATACATAT [CACACA_site6089],9.79
11,TTTTTTTTTTTTTTTTCTTTTTTTTTTTTAAATAAG [XGTACX_negctrl_site418],8.82
12,ATGTCAGGGAAAAAAACACACAAGAGTATGATATGT [CACACA_site2180],9.8
13,ATTTTTATATTTAATACACACATAAAATCATACCAT [CACACA_site23],9.73
14,TTACATATTTTCATTTGTACATATTCATTTTTTTTC [XGTACX_site6988],9.74
15,AAATAACCCACGTGCATGCACTTCAATAACTGAACT,9.84
16,TAAAAAAGAAAAAGAGCACACAAAAATATTTAACCT [CACACA_site8885],10.1
17,TATATATTTATATATTGTACACTCTTATGTAGTGTA [XGTACX_site210],9.56
18,TTTATCATGAACAGAAGTACATTTATATCAATGTCT [XGTACX_site6470],9.52
19,ATATATATATAATGTTGTACGTTTTATTCTCCCATT [XGTACX_site8071],9.72

row,Sequence,gcPBM binding intensity (ln)
1,ATATATATATATTTTACACACAATGGAGAAAAAAAT [CACACA_site644],10
2,TGGTATATACGACACACACACATATGTATAAATATA [CACACA_site6561],10.9
3,TATTTTTAAAAGTTAACAGAAAAAATATAAATAAAT [GTGCAC_negctrl_site295],9.42
4,TTTTCCCTTTTTTCCGCACACAATAAAATAAATAAA [CACACA_site2807],9.75
5,TGTAATAAAATAATTAGTACACATATATGTATATTT [XGTACX_site5896],9.75
6,TACCATAATCAATGCACACATAACAAAATATTATTA [CACACA_site2722],9.78
7,TGTTGTTACCTATATACACACATATAAATATTATAG [CACACA_site7180],9.79
8,AAAAAAAAAAAAAAAACACACAAGGATCAGATAGAT [CACACA_site7743],9.83
9,TTTTTCAGAAAAGAAACACACATATAAATATTTATA [CACACA_site7170],9.51
10,AGGGCATATATATATGCACACATACATATATACATG [CACACA_site9282],9.94
11,AATATTATGATATTATGTACATATTAAAAGCACCAC [XGTACX_site6236],10.2
12,TTTACACTTTTTTTTGTACACACTAAAAAGATTAAC [CACACA_site3933],9.69
13,TATTTCACAAACCTTACATGCGGTTTATTTATATAT [TGCATGCA_site123],9.99
14,TTTATTAAATATATATGTACATATCAAAATGTATAA [XGTACX_site3181],9.58
15,GTTAAACATCTTCTGTGATATGTTAGAATATTATTT [CACACA_negctrl_site687],9.57
16,TTTTTTTTCTATTGAGCACACATATCACGATTAGTA [CACACA_site7992],9.75
17,TTTTTGAATGTTTGCACACAAATCTCATAATTTTAG [CACACA_site357],9.69
18,TAGTTACATAAAATATGTACGTATAATTTTTTTATT [XGTACX_site3847],9.56
19,ATAATTTATATCATTACACACATTTTTTATATTTTT [CACACA_site3450],10

# From the supplement of paper PMC11417369
